The supplement of paper PMC10037445
Whole data set: some 2,900 compounds, median “IRF Lucia reporter activity, fold change vs agonist alone” near 0.9, cut for the highest 2% near 2.8. Some of the results follow.

Assays:
[1] = tested on: RAW-Dual; test: IRF Lucia reporter activity, fold change vs agonist alone; higher = enhanced IRF activity; conditions: cytotoxicity flag (confluency mask): not cytotoxic, agonist: MPLA (TLR4) […]
Procedure, shortened: (§1)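 Library stock was pin-tooled at 50 nL into 384-well plates of RAW-Dual macrophages (50,000 cells/well, DMEM), followed 1 h later by a PRR agonist, and the cells were kept at 37 °C, 5% CO2. Supernatant collected after 20 hours was read for IRF by QuantiLuc luminescence and for NF-κB by QuantiBlue absorbance at 620 nm. Reporter activity is fold change over agonist-alone wells, and a well counted as cytotoxic when its IncuCyte confluency was below 70% of agonist controls in both mask sets.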

[2] = tested on: RAW-Dual; test: IRF Lucia reporter activity, fold change vs agonist alone; cytotoxicity flag (confluency mask): not cytotoxic; higher = enhanced IRF activity
Procedure, shortened: as §1

[3] = tested on: RAW-Dual; test: IRF Lucia reporter activity, fold change vs agonist alone; cytotoxicity flag (confluency mask): cytotoxic (confluency <70% of control); higher = enhanced IRF activity
Procedure, shortened: as §1

[4] = library stock concentration (final ~1000-fold dilution): 10 mM
[5] = agonist: 3'3'-cGAMP (STING) 10 ug/mL
[6] = library stock concentration (final ~1000-fold dilution): 10 mM water

## CCc1oc2ccccc2c1C(=O)c1cc(Br)c(O)c(Br)c1
[1]; [4]
  IRF Lucia reporter activity: 1.06

## CCc1oc2ccccc2c1C(=O)c1cc(Br)c(O)c(Br)c1 (library stock concentration (final ~1000-fold dilution): 10 mM)
[2]; [5]
  IRF Lucia reporter activity: 1.05
[2]; agonist: LPS (TLR4) 0.1 ug/mL
  IRF Lucia reporter activity: 0.956

## CN1C(CC(=O)c2ccccc2)CCCC1CC(O)c1ccccc1.Cl (centres undefined)
[1]; [4]
  IRF Lucia reporter activity: 0.731

## CN1C(CC(=O)c2ccccc2)CCCC1CC(O)c1ccccc1.Cl (centres undefined) (library stock concentration (final ~1000-fold dilution): 10 mM)
[2]; [5]
  IRF Lucia reporter activity: 0.838
[2]; agonist: LPS (TLR4) 0.1 ug/mL
  IRF Lucia reporter activity: 0.784

## Cc1ccccc1N=Nc1ccc(NC(=O)c2ccnn2C)c(C)c1 (library stock concentration (final ~1000-fold dilution): 10 mM)
[2]; [5]
  IRF Lucia reporter activity: 1.11
[2]; agonist: LPS (TLR4) 0.1 ug/mL
  IRF Lucia reporter activity: 1.17

## COC1OC(COS(=O)(=O)O)C(OC2OC(C(=O)O)C(OC3OC(COS(=O)(=O)O)C(OC4OC(C(=O)O)C(OC5OC(COS(=O)(=O)O)C(O)C(O)C5NS(=O)(=O)O)C(O)C4O)C(OS(=O)(=O)O)C3NS(=O)(=O)O)C(O)C2OS(=O)(=O)O)C(O)C1NS(=O)(=O)O (centres undefined)
[1]; [6]
  IRF Lucia reporter activity: 1.37

## COC1OC(COS(=O)(=O)O)C(OC2OC(C(=O)O)C(OC3OC(COS(=O)(=O)O)C(OC4OC(C(=O)O)C(OC5OC(COS(=O)(=O)O)C(O)C(O)C5NS(=O)(=O)O)C(O)C4O)C(OS(=O)(=O)O)C3NS(=O)(=O)O)C(O)C2OS(=O)(=O)O)C(O)C1NS(=O)(=O)O (centres undefined) (library stock concentration (final ~1000-fold dilution): 10 mM water)
[2]; [5]
  IRF Lucia reporter activity: 1.42
[2]; agonist: LPS (TLR4) 0.1 ug/mL
  IRF Lucia reporter activity: 0.937

## O=C1CCC(N2Cc3c(OCc4ccc(CN5CCOCC5)cc4)cccc3C2=O)C(=O)N1 (centres undefined) (library stock concentration (final ~1000-fold dilution): 10 mM)
[2]; [5]
  IRF Lucia reporter activity: 1.05
[2]; agonist: LPS (TLR4) 0.1 ug/mL
  IRF Lucia reporter activity: 1.02

## O=C(O)C1(C(=O)O)CCC1.[NH2-].[NH2-].[Pt+2] (library stock concentration (final ~1000-fold dilution): 10 mM water)
[2]; [5]
  IRF Lucia reporter activity: 0.904
[2]; agonist: LPS (TLR4) 0.1 ug/mL
  IRF Lucia reporter activity: 0.839

## O=C(O)C1(C(=O)O)CCC1.[NH2-].[NH2-].[Pt+2]
[1]; [6]
  IRF Lucia reporter activity: 1.14

## CCOC(=O)CC(=O)O
[1]; [6]
  IRF Lucia reporter activity: 1.31

## CCOC(=O)CC(=O)O (library stock concentration (final ~1000-fold dilution): 10 mM water)
[2]; [5]
  IRF Lucia reporter activity: 1.46
[2]; agonist: LPS (TLR4) 0.1 ug/mL
  IRF Lucia reporter activity: 0.876

## C=C1C(=O)OC2C1CCC(C)=CCCC1(C)OC21 (centres undefined) (library stock concentration (final ~1000-fold dilution): 1 mM)
[2]; [5]
  IRF Lucia reporter activity: 0.336
[2]; agonist: LPS (TLR4) 0.1 ug/mL
  IRF Lucia reporter activity: 0.46

## O=c1c(O)c(-c2ccc(O)c(O)c2)oc2cc(O)cc(O)c12 (library stock concentration (final ~1000-fold dilution): 10 mM)
[2]; [5]
  IRF Lucia reporter activity: 0.566
[2]; agonist: LPS (TLR4) 0.1 ug/mL
  IRF Lucia reporter activity: 0.6

## O=c1c(O)c(-c2ccc(O)c(O)c2)oc2cc(O)cc(O)c12
[1]; [4]
  IRF Lucia reporter activity: 0.807

## O=C(c1cncc(Br)c1)N1CCC(N2CCCC2)CC1 (library stock concentration (final ~1000-fold dilution): 10 mM)
[2]; [5]
  IRF Lucia reporter activity: 0.995
[2]; agonist: LPS (TLR4) 0.1 ug/mL
  IRF Lucia reporter activity: 0.755

## O=C(c1cncc(Br)c1)N1CCC(N2CCCC2)CC1
[1]; [4]
  IRF Lucia reporter activity: 1.03

## O=C(Nc1ccc([N+](=O)[O-])cc1O)Nc1ccccc1Br (library stock concentration (final ~1000-fold dilution): 10 mM)
[3]; [5]
  IRF Lucia reporter activity: 0.209
[3]; agonist: LPS (TLR4) 0.1 ug/mL
  IRF Lucia reporter activity: 1.5

## CC1CCCC(C)N1 (centres undefined)
[1]; [4]
  IRF Lucia reporter activity: 1.1

## CC1CCCC(C)N1 (centres undefined) (library stock concentration (final ~1000-fold dilution): 10 mM)
[2]; [5]
  IRF Lucia reporter activity: 1.02
[2]; agonist: LPS (TLR4) 0.1 ug/mL
  IRF Lucia reporter activity: 1.28

## O=C(O)CCCN1CCC(OC(c2ccc(Cl)cc2)c2ccccn2)CC1.O=S(=O)(O)c1ccccc1 (centres undefined)
[1]; [4]
  IRF Lucia reporter activity: 1.05

## O=C(O)CCCN1CCC(OC(c2ccc(Cl)cc2)c2ccccn2)CC1.O=S(=O)(O)c1ccccc1 (centres undefined) (library stock concentration (final ~1000-fold dilution): 10 mM)
[2]; [5]
  IRF Lucia reporter activity: 1.06
[2]; agonist: LPS (TLR4) 0.1 ug/mL
  IRF Lucia reporter activity: 0.914

## O.c1cnc2c(c1)ccc1cccnc12 (library stock concentration (final ~1000-fold dilution): 10 mM)
[2]; [5]
  IRF Lucia reporter activity: 0.918
[2]; agonist: LPS (TLR4) 0.1 ug/mL
  IRF Lucia reporter activity: 1.02

## O.c1cnc2c(c1)ccc1cccnc12
[1]; [4]
  IRF Lucia reporter activity: 1.31

## CCOC(=O)C(CCc1ccccc1)NC(C)C(=O)N1Cc2cc(OC)c(OC)cc2CC1C(=O)O.Cl (centres undefined) (library stock concentration (final ~1000-fold dilution): 10 mM)
[2]; [5]
  IRF Lucia reporter activity: 1.04
[2]; agonist: LPS (TLR4) 0.1 ug/mL
  IRF Lucia reporter activity: 1.04

## CCOC(=O)C(CCc1ccccc1)NC(C)C(=O)N1Cc2cc(OC)c(OC)cc2CC1C(=O)O.Cl (centres undefined)
[1]; [4]
  IRF Lucia reporter activity: 0.973

## CC1(C)CC[C@]2(C(=O)O)CC[C@]3(C)[C@H](C(=O)C=C4[C@@]5(C)C=C(C#N)C(=O)C(C)(C)[C@@H]5CC[C@]43C)[C@@H]2C1 (library stock concentration (final ~1000-fold dilution): 10 mM)
[2]; [5]
  IRF Lucia reporter activity: 0.606
[2]; agonist: LPS (TLR4) 0.1 ug/mL
  IRF Lucia reporter activity: 0.0177

## Cl.Cl.OCCOCCN1CCN(C(c2ccccc2)c2ccc(Cl)cc2)CC1 (centres undefined)
[1]; [4]
  IRF Lucia reporter activity: 1.16
